# Data published in the supplement of paper PMC8728848.
# The other results are listed elsewhere or left out.
# Experiments:
# Experiment in all cases: glycan array binding signal (z-score within array); higher = stronger binding
# Settings in all cases: glycan notation: IUPAC condensed, linker removed
# [1] = target: Fuc(a1-2)Gal
# Method in brief: (§1)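 Glycan array binding is given as a within-array Z-score, which can be read as non-binding when negative. The arrays, 3228 of them, came from the Consortium for Functional Glycomics database and were retained only where the protein sequence was available. Z-scores were averaged across arrays of the same protein sequence at different concentrations or buffers and across linkers.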
# [2] = target: Fuc(a1-2)Gal(b1-3)GalNAc
# Method in brief: as §1
# [3] = target: Fuc(a1-2)Gal(b1-3)GalNAc(b1-3)Gal
# Method in brief: as §1
# [4] = target: Fuc(a1-2)Gal(b1-3)GalNAc(b1-3)Gal(a1-4)Gal(b1-4)Glc
# Method in brief: as §1
# [5] = target: Fuc(a1-2)Gal(b1-3)GalNAc(b1-4)[Neu5Ac(a2-3)]Gal(b1-4)Glc
# Method in brief: as §1
# [6] = target: Fuc(a1-2)Gal(b1-3)GlcNAc
# Method in brief: as §1
# [7] = target: Fuc(a1-2)Gal(b1-3)GlcNAc(b1-3)Gal(b1-4)Glc
# Method in brief: as §1
# [8] = target: Fuc(a1-2)Gal(b1-3)[Fuc(a1-4)]GlcNAc
# Method in brief: as §1
# [9] = target: Fuc(a1-2)Gal(b1-4)Glc
# Method in brief: as §1
# [10] = target: Fuc(a1-2)Gal(b1-4)GlcNAc
# Method in brief: as §1
# [11] = target: Fuc(a1-2)Gal(b1-4)GlcNAc(b1-3)Gal(b1-4)GlcNAc
# Method in brief: as §1
# [12] = target: Fuc(a1-2)Gal(b1-4)GlcNAc(b1-3)Gal(b1-4)GlcNAc(b1-3)Gal(b1-4)GlcNAc
# Method in brief: as §1
# [13] = target: Fuc(a1-2)Gal(b1-4)[Fuc(a1-3)]GlcNAc
# Method in brief: as §1
# [14] = target: Fuc(a1-2)Gal(b1-4)[Fuc(a1-3)]GlcNAc(b1-3)Gal(b1-4)[Fuc(a1-3)]GlcNAc
# Method in brief: as §1
# [15] = target: Fuc(a1-2)Gal(b1-4)[Fuc(a1-3)]GlcNAc(b1-3)Gal(b1-4)[Fuc(a1-3)]GlcNAc(b1-3)Gal(b1-4)[Fuc(a1-3)]GlcNAc
# Method in brief: as §1
# [16] = target: Fuc(a1-2)GlcNAc
# Method in brief: as §1
# [17] = target: Fuc(a1-2)[Gal(a1-3)]Gal
# Method in brief: as §1
# [18] = target: Fuc(a1-2)[Gal(a1-3)]Gal(b1-3)GlcNAc
# Method in brief: as §1
# [19] = target: Fuc(a1-2)[Gal(a1-3)]Gal(b1-4)Glc
# Method in brief: as §1
# [20] = target: Fuc(a1-2)[Gal(a1-3)]Gal(b1-4)GlcNAc
# Method in brief: as §1
# [21] = target: Fuc(a1-2)[Gal(a1-3)]Gal(b1-4)[Fuc(a1-3)]GlcNAc
# Method in brief: as §1
# [22] = target: Fuc(a1-2)[Gal(a1-4)]Gal(b1-4)GlcNAc
# Method in brief: as §1
# [23] = target: Fuc(a1-2)[GalNAc(a1-3)]Gal
# Method in brief: as §1
# [24] = target: Fuc(a1-2)[GalNAc(a1-3)]Gal(b1-3)GlcNAc
# Method in brief: as §1
# [25] = target: Fuc(a1-2)[GalNAc(a1-3)]Gal(b1-4)Glc
# Method in brief: as §1
# [26] = target: Fuc(a1-2)[GalNAc(a1-3)]Gal(b1-4)GlcNAc
# Method in brief: as §1
# [27] = target: Fuc(a1-2)[GalNAc(a1-3)]Gal(b1-4)[Fuc(a1-3)]GlcNAc
# Method in brief: as §1
# [28] = target: Fuc(a1-2)[GalNAc(a1-4)]Gal(b1-4)GlcNAc
# Method in brief: as §1
# [29] = target: Fuc(a1-2)[GalNAc(b1-3)]Gal
# Method in brief: as §1
# [30] = target: Fuc(a1-3)GlcNAc
# Method in brief: as §1
binder,measurement,setting,value
FaeGad (Escherichia coli) (protein) WMTGDFNGSVDIGGSITADDYRQKWEWEVGTGLNGFGSVLNDLTNGGTKLTITVTGNKPILLGRTKEAFATPVTSGVDGIPHIAFTDYEGASVELRNPDGETEKGLTYFVLPMKNAEGTKVGSVKVNASYAGALGRGGVTSADGELMSLFAEGSHAIFYGGLPTNVKNSELKGGSAAAARTELFGSLSKNDILGQIQRVNANITSLVNVPGSFNENMAYTDGSVVSVAYALGIANGQTIEATFNQAVTTSTQWSAPLNVAITYY,glycan array binding signal (z-score),[1],0.035
same,glycan array binding signal (z-score),[2],-0.282
same,glycan array binding signal (z-score),[3],-0.416
same,glycan array binding signal (z-score),[4],-0.404
same,glycan array binding signal (z-score),[5],-0.391
same,glycan array binding signal (z-score),[6],-0.325
same,glycan array binding signal (z-score),[7],-0.212
same,glycan array binding signal (z-score),[8],-0.37
same,glycan array binding signal (z-score),[9],-0.148
same,glycan array binding signal (z-score),[10],-0.353
same,glycan array binding signal (z-score),[11],-0.407
same,glycan array binding signal (z-score),[12],-0.365
same,glycan array binding signal (z-score),[13],-0.348
same,glycan array binding signal (z-score),[14],-0.382
same,glycan array binding signal (z-score),[15],-0.262
same,glycan array binding signal (z-score),[16],-0.247
same,glycan array binding signal (z-score),[17],-0.425
same,glycan array binding signal (z-score),[18],-0.429
same,glycan array binding signal (z-score),[19],-0.361
same,glycan array binding signal (z-score),[20],-0.436
same,glycan array binding signal (z-score),[21],-0.473
same,glycan array binding signal (z-score),[22],-0.36
same,glycan array binding signal (z-score),[23],-0.338
same,glycan array binding signal (z-score),[24],-0.5
same,glycan array binding signal (z-score),[25],-0.482
same,glycan array binding signal (z-score),[26],-0.489
same,glycan array binding signal (z-score),[27],-0.288
same,glycan array binding signal (z-score),[28],-0.268
same,glycan array binding signal (z-score),[29],0.037
same,glycan array binding signal (z-score),[30],0.055
